Values joined by “and” are separate entries in the source; they are usually repeats but may differ in a detail not shown here. Equal entries are not always repeated. The whole screen tested about 3,200 compounds, of which about 300 (9.4%) showed activity. Only a part is listed here, and it is no random draw.
System: A673/TR/shEF
Test: cell viability (LOESS-normalised, relative to median of negative controls) (log2 ratio); higher = more viable cells (less compound effect), active = hit call of the paper (over 3 MAD below the median)
Conditions: treatment time: 72 h
Summary of the method: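 Viability of A673/TR/shEF Ewing sarcoma cells was determined by CellTiter-Glo luminescence. The cells, at 1,500 per well in 384-well plates, were grown with or without doxycycline from 24 h before compound addition to switch on EWS-FLI1 shRNA knockdown, then exposed for three days to library compounds at two or more concentrations or to DMSO controls. Signals were LOESS-corrected plate by plate, normalised to the negative-control median and log2-transformed.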

[1] = 0.103 µM, library screen: screen3, EWS-FLI1 expression: high (no doxycycline)
[2] = 0.103 µM, library screen: screen3, EWS-FLI1 expression: low (doxycycline-induced shRNA knockdown)
[3] = 0.25 µM, library screen: screen1, EWS-FLI1 expression: high (no doxycycline)
[4] = 0.25 µM, library screen: screen1, EWS-FLI1 expression: low (doxycycline-induced shRNA knockdown)
[5] = 0.308 µM, library screen: screen3, EWS-FLI1 expression: high (no doxycycline)
[6] = 0.308 µM, library screen: screen3, EWS-FLI1 expression: low (doxycycline-induced shRNA knockdown)
[7] = 0.926 µM, library screen: screen3, EWS-FLI1 expression: high (no doxycycline)
[8] = 0.926 µM, library screen: screen3, EWS-FLI1 expression: low (doxycycline-induced shRNA knockdown)
[9] = 2.5 µM, library screen: screen1, EWS-FLI1 expression: high (no doxycycline)
[10] = 2.5 µM, library screen: screen1, EWS-FLI1 expression: low (doxycycline-induced shRNA knockdown)
[11] = 2.8 µM, library screen: screen3, EWS-FLI1 expression: high (no doxycycline)
[12] = 2.8 µM, library screen: screen3, EWS-FLI1 expression: low (doxycycline-induced shRNA knockdown)
[13] = 8.3 µM, library screen: screen3, EWS-FLI1 expression: high (no doxycycline)
[14] = 8.3 µM, library screen: screen3, EWS-FLI1 expression: low (doxycycline-induced shRNA knockdown)
[15] = 25 µM, library screen: screen3, EWS-FLI1 expression: high (no doxycycline)
[16] = 25 µM, library screen: screen3, EWS-FLI1 expression: low (doxycycline-induced shRNA knockdown)
[17] = 0.25 µM, library screen: screen2, EWS-FLI1 expression: high (no doxycycline)
[18] = 0.25 µM, library screen: screen2, EWS-FLI1 expression: low (doxycycline-induced shRNA knockdown)
[19] = 2.5 µM, library screen: screen2, EWS-FLI1 expression: high (no doxycycline)
[20] = 2.5 µM, library screen: screen2, EWS-FLI1 expression: low (doxycycline-induced shRNA knockdown)

Measured: cell viability (log2)

COc1ccc(C(CN(C)C)C2(O)CCCCC2)cc1 (stereo not given)
inactive: [1] 0.1 | [2] 0.0765 | [3] 0.147 | [4] 0.0243 | [5] 0.0583 | [6] 0.00866 | [7] -0.017 | [8] 0.1 | [9] 0.192 | [10] 0.0421 | [11] 0.0478 | [12] 0.0607 | [13] -0.0104 | [14] 0.0525 | [15] 0.0462 | [16] 0.0715

CN(C)C(=O)Oc1cccc([N+](C)(C)C)c1
inactive: [1] 0.0705 | [2] 0.081 | [3] 0.106 | [4] 0.059 | [17] 0.144 | [18] 0.115 | [5] 0.119 | [6] 0.127 | [7] 0.0705 | [8] 0.106 | [9] 0.167 | [10] 0.102 | [19] 0.078 | [20] 0.0692 | [11] 0.0671 | [12] 0.0764 | [13] 0.117 | [14] 0.0235 | [15] 0.103 | [16] 0.0552

CNC(=O)Oc1ccc2c(c1)[C@]1(C)CCN(C)[C@@H]1N2C
inactive: [3] 0.0623 and 0.086 | [4] 0.109 and 0.0231 | [17] 0.208 | [18] 0.095 | [9] 0.115 and 0.142 | [10] 0.161 and 0.0648 | [19] 0.149 | [20] 0.0834

COc1ccc(C[C@H]2c3cc(OC)c(OC)cc3CCN2C)cc1OC
inactive: [3] 0.0762 | [4] 0.101 | [9] 0.079 | [10] 0.165

CC1CC(Cl)CCC1C(=O)OC(C)(C)C (stereo not given)
inactive: [3] -0.0203 | [4] 0.0889 | [9] 0.151 | [10] 0.103

O=C(O)c1cc[c]([Hg][Cl])cc1
active: [19] -0.0791

FC(F)(F)c1cccc(N2CCNCC2)c1
inactive: [3] 0.112 | [4] 0.0689 | [9] 0.176 | [10] 0.0985

CC1=NN=C(c2ccc(N)cc2)c2cc3c(cc2C1)OCO3
inactive: [17] 0.2 | [18] 0.141 | [19] 0.102 | [20] 0.0639

C=C1C[C@@H]2[C@H](CC[C@]3(C)C(=O)CC[C@@H]23)[C@@]2(C)C=CC(=O)C=C12
inactive: [1] -0.0682 | [2] -0.0022 | [5] 0.032 | [6] 0.0326 | [7] 0.0425 | [8] 0.0172 | [11] 0.104 | [12] 0.0265 | [13] 0.037 | [14] 0.0696 | [15] 0.0545 | [16] 0.0523

NS(=O)(=O)c1ccc2c(c1)CNCC2
inactive: [17] 0.162 | [18] 0.085 | [19] 0.143 | [20] 0.0805

CC(=O)[C@H]1CC[C@H]2[C@@H]3CC[C@H]4C[C@H](O)CC[C@]4(C)[C@H]3C(=O)C[C@]12C
active: [19] -2.77 | [20] -0.524

CC(=O)c1c(O)c(C)c(O)c(Cc2c(O)c3c(c(C(=O)/C=C/c4ccccc4)c2O)OC(C)(C)C=C3)c1O
active: 25 µM, library screen: screen1, EWS-FLI1 expression: high (no doxycycline) -0.306
inactive: 0.025 µM, library screen: screen1, EWS-FLI1 expression: high (no doxycycline) 0.0285 | 0.025 µM, library screen: screen1, EWS-FLI1 expression: low (doxycycline-induced shRNA knockdown) 0.0263 | [3] 0.0889 | [4] 0.0306 | [17] 0.209 | [18] 0.109 | [9] 0.055 | [10] -0.0112 | [19] 0.118 | [20] 0.156 | 25 µM, library screen: screen1, EWS-FLI1 expression: low (doxycycline-induced shRNA knockdown) -0.0436

COc1ccccc1N1CCNCC1
inactive: [3] 0.0547 | [4] 0.0205 | [17] 0.228 | [18] 0.0463 | [9] 0.105 | [10] 0.112 | [19] 0.201 | [20] 0.0929

CC(=O)OC1CCC2(C)C(CCC3C2CCC2(C)C(C4=CC(=O)OC4)C(OC(C)=O)CC32O)C1 (stereo not given)
active: [9] -2.02 | [10] -2.26

O=C1C=CC(=O)C=C1
inactive: [17] 0.113 | [18] 0.0786 | [19] 0.21 | [20] 0.141

CC(C)[C@]12O[C@H]1[C@@H]1O[C@@]13[C@@]1(C)CCC4=C(COC4=O)[C@@H]1C[C@@H]1O[C@@]13C2=O
active: [3] -2.66 | [4] -3.01 | [9] -3.24 | [10] -2.91

CN(C)[C@@H]1C(=O)C(C(N)=O)=C(O)[C@@]2(O)C(=O)C3=C(O)c4c(O)cccc4[C@@](C)(O)[C@H]3[C@H](O)[C@@H]12
inactive: [1] 0.0702 | [2] 0.0143 | [3] 0.0991 | [4] 0.163 | [5] 0.0382 | [6] 0.159 | [7] 0.119 | [8] 0.101 | [9] 0.158 | [10] 0.172 | [11] 0.158 | [12] 0.126 | [13] 0.103 | [14] 0.0656 | [15] 0.0616 | [16] 0.0848

CN1C(=O)CCS(=O)(=O)C1c1ccc(Cl)cc1 (stereo not given)
inactive: [3] 0.0501 | [4] 0.0344 | [17] 0.126 | [18] 0.114 | [9] 0.0851 | [10] 0.0868 | [19] 0.0874 | [20] 0.0761

CCCn1c(C)c(C(=O)c2cccc3ccccc23)c2ccccc21
inactive: [17] 0.213 | [18] 0.128 | [19] 0.0897 | [20] 0.055

C=C1C2CC[C@@]3(C)[C@H](c4ccoc4)OC(=O)C[C@]13O[C@H]1CC(=O)C(C)(C)[C@H](C(OC(C)=O)C(=O)OC)[C@@]21C (stereo not given in full)
inactive: [3] 0.0428 | [4] 0.0583 | [9] 0.106 | [10] 0.119

O=P1(N(CCCl)CCCl)NCCCO1 (stereo not given)
inactive: 0.025 µM, library screen: screen2, EWS-FLI1 expression: high (no doxycycline) 0.105 | 0.025 µM, library screen: screen2, EWS-FLI1 expression: low (doxycycline-induced shRNA knockdown) 0.0824 | [1] 0.146 | [2] 0.0804 | [3] 0.11 | [4] 0.163 | [17] 0.137 | [18] 0.0863 | [5] 0.0638 | [6] 0.0134 | [7] 0.0846 | [8] 0.061 | [9] 0.228 | [10] 0.17 | [19] 0.122 | [20] 0.0525 | [11] 0.114 | [12] 0.0823 | [13] 0.0653 | [14] 0.1 | 25 µM, library screen: screen2, EWS-FLI1 expression: high (no doxycycline) 0.0276 | 25 µM, library screen: screen2, EWS-FLI1 expression: low (doxycycline-induced shRNA knockdown) 0.165 | [15] 0.071 | [16] 0.141

O=C(O)Cc1cnc[nH]1
inactive: [3] 0.0706 | [4] 0.0477 | [17] 0.192 | [18] 0.0938 | [9] 0.1 | [10] 0.0842 | [19] 0.174 | [20] 0.0822

CNC(=O)Oc1ccccc1OC(C)C
inactive: [3] 0.0795 | [4] 0.0528 | [9] 0.177 | [10] 0.0381

C[C@](N)(CCP(=O)(O)O)C(=O)O
inactive: [17] 0.14 | [18] 0.14 | [19] 0.151 | [20] 0.0963

O=C(O)[C@@H]1CCN1
inactive: [17] 0.101 | [18] 0.092 | [19] 0.0671 | [20] 0.0609

CC(N)C(O)c1ccc(O)c(O)c1 (stereo not given)
inactive: [3] 0.119 | [4] 0.0592 | [9] 0.146 | [10] 0.151

COc1ccc(CCN)cc1O
inactive: [17] 0.19 | [18] 0.105 | [19] 0.0411 | [20] 0.0823

CC(=O)O[C@@H]1CC[C@@]2(C)[C@@H](CC[C@@H]3[C@@H]2CC[C@]2(C)C(=O)CC[C@@H]32)C1
inactive: [3] 0.0923 | [4] 0.0254 | [9] 0.0362 | [10] 0.0893

COC(=O)c1cc2c(cn1)[nH]c1ccccc12
inactive: [17] 0.162 | [18] 0.0906 | [19] 0.145 | [20] 0.119

CCCN1CCO[C@@H]2c3cc(O)ccc3OC[C@H]21
inactive: [17] 0.263 | [18] 0.0533 | [19] 0.0947 | [20] 0.0737

COc1ccc2c(c1OC)C(=O)O[C@H]2[C@@H]1c2cc3c(cc2CCN1C)OCO3
inactive: [17] 0.0965 | [18] 0.0835 | [19] 0.18 | [20] 0.113

CO[C@H]1C[C@H](O[C@H]2CCC3(C=O)C4CCC5(C)C(C6=CC(=O)OC6)CCC5(O)C4CC[C@]3(O)C2)O[C@H](C)[C@H]1O (stereo not given in full)
active: [3] -0.95 | [4] -1.15 | [9] -3.9 | [10] -3.2

CCCCCCCCCCCCCCCC[n+]1ccccc1
active: [9] -1.66 | [10] -2.21

CC[S+]([O-])CCSP(=O)(OC)OC (stereo not given)
inactive: [3] 0.119 | [4] 0.0126 | [9] 0.119 | [10] 0.0247

CCOP(=S)(OCC)Oc1nc(Cl)c(Cl)cc1Cl
inactive: [3] 0.0497 | [4] 0.03 | [9] 0.0752 | [10] 0.0499

COP(=S)(OC)Oc1ccc(Sc2ccc(OP(=S)(OC)OC)cc2)cc1
inactive: [3] 0.0592 | [4] -0.158 | [9] 0.114 | [10] 0.0667

CNC(=O)N(C)c1nnc(C(C)(C)C)s1
inactive: [3] 0.107 | [4] 0.084 | [9] 0.11 | [10] 0.0508

C[C@]12CCC3C(CC[C@H]4C[C@H](O)CC[C@]34C)C1CC[C@@H]2C(=O)CO (stereo not given in full)
inactive: [17] 0.139 | [18] 0.0931 | [19] 0.0348 | [20] 0.0492

Reference: the supplement of paper PMC6089552
